# The list shows a part of the results.
# Legend:
# Test in all cases: glycan array binding signal (z-score within array); higher = stronger binding
# Conditions in all cases: glycan notation: IUPAC condensed, linker removed
# [1] = molecular target: GlcNAc(a1-6)Gal(b1-4)GlcNAc
# Outline: (§1)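 Columns mapping to the same glycan were averaged after glycan names were converted to IUPAC-condensed notation. The data come from 3228 arrays in the Consortium for Functional Glycomics database, limited to those with an available protein sequence. Binding is reported as a within-array Z-score averaged across arrays of one protein sequence and across linkers.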
# [2] = molecular target: GlcNAc(b1-2)Gal(b1-3)GalNAc
# Outline: as §1
# [3] = molecular target: GlcNAc(b1-2)Man(a1-3)[GlcNAc(b1-2)Man(a1-6)]Man(b1-4)GlcNAc(b1-4)GlcNAc
# Outline: as §1
# [4] = molecular target: GlcNAc(b1-2)Man(a1-3)[GlcNAc(b1-2)Man(a1-6)]Man(b1-4)GlcNAc(b1-4)[Fuc(a1-6)]GlcNAc
# Outline: as §1
# [5] = molecular target: GlcNAc(b1-2)Man(a1-3)[GlcNAc(b1-4)][GlcNAc(b1-2)Man(a1-6)]Man(b1-4)GlcNAc(b1-4)GlcNAc
# Outline: as §1
# [6] = molecular target: GlcNAc(b1-2)Man(a1-3)[GlcNAc(b1-4)][GlcNAc(b1-2)Man(a1-6)]Man(b1-4)GlcNAc(b1-4)[Fuc(a1-6)]GlcNAc
# Outline: as §1
# [7] = molecular target: GlcNAc(b1-2)[GlcNAc(b1-4)]Man(a1-3)[GlcNAc(b1-2)Man(a1-6)]Man(b1-4)GlcNAc(b1-4)GlcNAc
# Outline: as §1
# [8] = molecular target: GlcNAc(b1-2)[GlcNAc(b1-4)]Man(a1-3)[GlcNAc(b1-4)][GlcNAc(b1-2)Man(a1-6)]Man(b1-4)GlcNAc(b1-4)GlcNAc
# Outline: as §1
# [9] = molecular target: GlcNAc(b1-2)[GlcNAc(b1-4)]Man(a1-3)[GlcNAc(b1-4)][GlcNAc(b1-2)[GlcNAc(b1-6)]Man(a1-6)]Man(b1-4)GlcNAc(b1-4)GlcNAc
# Outline: as §1
# [10] = molecular target: GlcNAc(b1-2)[GlcNAc(b1-4)]Man(a1-3)[GlcNAc(b1-4)][GlcNAc(b1-2)[GlcNAc(b1-6)]Man(a1-6)]Man(b1-4)GlcNAc(b1-4)[Fuc(a1-6)]GlcNAc
# Outline: as §1
# [11] = molecular target: GlcNAc(b1-2)[GlcNAc(b1-6)]Man(a1-6)[GlcNAc(b1-2)Man(a1-3)]Man(b1-4)GlcNAc(b1-4)GlcNAc
# Outline: as §1
# [12] = molecular target: GlcNAc(b1-2)[GlcNAc(b1-6)]Man(a1-6)[GlcNAc(b1-2)Man(a1-3)]Man(b1-4)GlcNAc(b1-4)[Fuc(a1-6)]GlcNAc
# Outline: as §1
# [13] = molecular target: GlcNAc(b1-2)[GlcNAc(b1-6)]Man(a1-6)[GlcNAc(b1-4)][GlcNAc(b1-2)Man(a1-3)]Man(b1-4)GlcNAc(b1-4)GlcNAc
# Outline: as §1
# GlcNAc(b1-3)Fuc = molecular target: GlcNAc(b1-3)Fuc
# Outline: as §1
# GlcNAc(b1-3)Gal = molecular target: GlcNAc(b1-3)Gal
# Outline: as §1
# [14] = molecular target: GlcNAc(b1-3)Gal(b1-3)GalNAc
# Outline: as §1
# GlcNAc(b1-3)Gal(b1-4)Glc = molecular target: GlcNAc(b1-3)Gal(b1-4)Glc
# Outline: as §1
# [15] = molecular target: GlcNAc(b1-3)Gal(b1-4)GlcNAc
# Outline: as §1
# [16] = molecular target: GlcNAc(b1-3)Gal(b1-4)GlcNAc(b1-2)Man(a1-3)[GlcNAc(b1-3)Gal(b1-4)GlcNAc(b1-2)Man(a1-6)]Man(b1-4)GlcNAc(b1-4)GlcNAc
# Outline: as §1
# [17] = molecular target: GlcNAc(b1-3)Gal(b1-4)GlcNAc(b1-2)Man(a1-3)[GlcNAc(b1-3)Gal(b1-4)GlcNAc(b1-2)Man(a1-6)]Man(b1-4)GlcNAc(b1-4)[Fuc(a1-6)]GlcNAc
# Outline: as §1
# [18] = molecular target: GlcNAc(b1-3)Gal(b1-4)GlcNAc(b1-2)[GlcNAc(b1-3)Gal(b1-4)GlcNAc(b1-6)]Man(a1-6)[GlcNAc(b1-3)Gal(b1-4)GlcNAc(b1-2)Man(a1-3)]Man(b1-4)GlcNAc(b1-4)GlcNAc
# Outline: as §1
# [19] = molecular target: GlcNAc(b1-3)Gal(b1-4)GlcNAc(b1-3)Gal(b1-4)GlcNAc
# Outline: as §1
# [20] = molecular target: GlcNAc(b1-3)Gal(b1-4)GlcNAc(b1-3)Gal(b1-4)GlcNAc(b1-2)Man(a1-3)[GlcNAc(b1-3)Gal(b1-4)GlcNAc(b1-3)Gal(b1-4)GlcNAc(b1-2)Man(a1-6)]Man(b1-4)GlcNAc(b1-4)GlcNAc
# Outline: as §1
# [21] = molecular target: GlcNAc(b1-3)Gal(b1-4)GlcNAc(b1-3)Gal(b1-4)GlcNAc(b1-2)Man(a1-3)[GlcNAc(b1-3)Gal(b1-4)GlcNAc(b1-3)Gal(b1-4)GlcNAc(b1-2)Man(a1-6)]Man(b1-4)GlcNAc(b1-4)[Fuc(a1-6)]GlcNAc
# Outline: as §1
# [22] = molecular target: GlcNAc(b1-3)Gal(b1-4)GlcNAc(b1-3)Gal(b1-4)GlcNAc(b1-2)[GlcNAc(b1-3)Gal(b1-4)GlcNAc(b1-3)Gal(b1-4)GlcNAc(b1-6)]Man(a1-6)[GlcNAc(b1-3)Gal(b1-4)GlcNAc(b1-3)Gal(b1-4)GlcNAc(b1-2)Man(a1-3)]Man(b1-4)GlcNAc(b1-4)[Fuc(a1-6)]GlcNAc
# Outline: as §1
# [23] = molecular target: GlcNAc(b1-3)Gal(b1-4)GlcNAc(b1-3)Gal(b1-4)GlcNAc(b1-3)Gal(b1-4)GlcNAc(b1-2)Man(a1-3)[GlcNAc(b1-3)Gal(b1-4)GlcNAc(b1-3)Gal(b1-4)GlcNAc(b1-3)Gal(b1-4)GlcNAc(b1-2)Man(a1-6)]Man(b1-4)GlcNAc(b1-4)GlcNAc
# Outline: as §1
# [24] = molecular target: GlcNAc(b1-3)Gal(b1-4)GlcNAc(b1-3)Gal(b1-4)GlcNAc(b1-3)Gal(b1-4)GlcNAc(b1-2)Man(a1-3)[GlcNAc(b1-3)Gal(b1-4)GlcNAc(b1-3)Gal(b1-4)GlcNAc(b1-3)Gal(b1-4)GlcNAc(b1-2)Man(a1-6)]Man(b1-4)GlcNAc(b1-4)[Fuc(a1-6)]GlcNAc
# Outline: as §1
# [25] = molecular target: GlcNAc(b1-3)Gal(b1-4)GlcNAc(b1-3)Gal(b1-4)GlcNAc(b1-3)Gal(b1-4)GlcNAc(b1-2)[GlcNAc(b1-3)Gal(b1-4)GlcNAc(b1-3)Gal(b1-4)GlcNAc(b1-3)Gal(b1-4)GlcNAc(b1-6)]Man(a1-6)[GlcNAc(b1-3)Gal(b1-4)GlcNAc(b1-3)Gal(b1-4)GlcNAc(b1-3)Gal(b1-4)GlcNAc(b1-2)Man(a1-3)]Man(b1-4)GlcNAc(b1-4)[Fuc(a1-6)]GlcNAc
# Outline: as §1
# [26] = molecular target: GlcNAc(b1-3)Gal(b1-4)GlcNAc(b1-3)Gal(b1-4)GlcNAc(b1-3)Gal(b1-4)GlcNAc(b1-3)Gal(b1-4)GlcNAc(b1-2)Man(a1-3)[GlcNAc(b1-3)Gal(b1-4)GlcNAc(b1-3)Gal(b1-4)GlcNAc(b1-3)Gal(b1-4)GlcNAc(b1-3)Gal(b1-4)GlcNAc(b1-2)Man(a1-6)]Man(b1-4)GlcNAc(b1-4)GlcNAc
# Outline: as §1
# [27] = molecular target: GlcNAc(b1-3)Gal(b1-4)GlcNAc(b1-3)Gal(b1-4)GlcNAc(b1-3)Gal(b1-4)GlcNAc(b1-3)Gal(b1-4)GlcNAc(b1-2)Man(a1-3)[GlcNAc(b1-3)Gal(b1-4)GlcNAc(b1-3)Gal(b1-4)GlcNAc(b1-3)Gal(b1-4)GlcNAc(b1-3)Gal(b1-4)GlcNAc(b1-2)Man(a1-6)]Man(b1-4)GlcNAc(b1-4)[Fuc(a1-6)]GlcNAc
# Outline: as §1
# [28] = molecular target: GlcNAc(b1-3)Gal(b1-4)GlcNAc(b1-3)Gal(b1-4)GlcNAc(b1-3)Gal(b1-4)GlcNAc(b1-3)Gal(b1-4)GlcNAc(b1-2)[GlcNAc(b1-3)Gal(b1-4)GlcNAc(b1-3)Gal(b1-4)GlcNAc(b1-3)Gal(b1-4)GlcNAc(b1-3)Gal(b1-4)GlcNAc(b1-6)]Man(a1-6)[GlcNAc(b1-3)Gal(b1-4)GlcNAc(b1-3)Gal(b1-4)GlcNAc(b1-3)Gal(b1-4)GlcNAc(b1-3)Gal(b1-4)GlcNAc(b1-2)Man(a1-3)]Man(b1-4)GlcNAc(b1-4)[Fuc(a1-6)]GlcNAc
# Outline: as §1
# [29] = molecular target: GlcNAc(b1-3)Gal(b1-4)GlcNAc(b1-3)Gal(b1-4)GlcNAc(b1-3)GalNAc
# Outline: as §1
# [30] = molecular target: GlcNAc(b1-3)Gal(b1-4)GlcNAc(b1-3)GalNAc
# Outline: as §1
# [31] = molecular target: GlcNAc(b1-3)Gal(b1-4)GlcNAc(b1-3)[GlcNAc(b1-3)Gal(b1-4)GlcNAc(b1-3)]GalNAc
# Outline: as §1
# [32] = molecular target: GlcNAc(b1-3)Gal(b1-4)GlcNAc(b1-6)[Gal(b1-3)]GalNAc
# Outline: as §1
# [33] = molecular target: GlcNAc(b1-3)Gal(b1-4)GlcNAc(b1-6)[GlcNAc(b1-3)Gal(b1-3)]GalNAc
# Outline: as §1
# [34] = molecular target: GlcNAc(b1-3)Gal(b1-4)GlcNAc(b1-6)[GlcNAc(b1-3)]Gal(b1-4)GlcNAc
# Outline: as §1
# GlcNAc(b1-3)GalNAc = molecular target: GlcNAc(b1-3)GalNAc
# Outline: as §1
# GlcNAc(b1-3)Man = molecular target: GlcNAc(b1-3)Man
# Outline: as §1
# [35] = molecular target: GlcNAc(b1-3)[GlcNAc(b1-4)][GlcNAc(b1-6)]GlcNAc
# Outline: as §1
# [36] = molecular target: GlcNAc(b1-3)[GlcNAc(b1-6)]Gal(b1-4)GlcNAc
# Outline: as §1
# [37] = molecular target: GlcNAc(b1-3)[GlcNAc(b1-6)]GalNAc
# Outline: as §1
# [38] = molecular target: GlcNAc(b1-4)Gal(b1-4)GlcNAc
# Outline: as §1
# GlcNAc(b1-4)GlcNAc = molecular target: GlcNAc(b1-4)GlcNAc
# Outline: as §1
# [39] = molecular target: GlcNAc(b1-4)GlcNAc(b1-4)GlcNAc
# Outline: as §1
binder,measurement,setting,value
"Gal 8 (Mus musculus), Q9JL15 (protein) MGGSHHHHHHGMASMLSLNNLQNIIYNPIIPYVGTITEQLKPGSLIVIRGHVPKDSERFQVDFQLGNSLKPRADVAFHFNPRFKRSSCIVCNTLTQEKWGWEEITYDMPFRKEKSFEIVFMVLKNKFQVAVNGRHVLLYAHRISPEQIDTVGIYGKVNIHSIGFRFSSASALPHTLGDLQSMETSALGLTQINRENIQKPGKLQLSLPFEARLNASMGPGRTVVIKGEVNTNARSFNVDLVAGKTRDIALHLNPRLNVKAFVRNSFLQDAWGEEERNITCFPFSSGMYFEMIIYCDVREFKVAINGVHSLEYKHRFKDLSSIDTLSVDGDIRLLDVRSW",glycan array binding signal (z-score),[1],-0.54
same,glycan array binding signal (z-score),[2],-0.179
same,glycan array binding signal (z-score),[3],-0.54
same,glycan array binding signal (z-score),[4],-0.537
same,glycan array binding signal (z-score),[5],-0.542
same,glycan array binding signal (z-score),[6],-0.551
same,glycan array binding signal (z-score),[7],-0.534
same,glycan array binding signal (z-score),[8],-0.541
same,glycan array binding signal (z-score),[9],-0.547
same,glycan array binding signal (z-score),[10],-0.548
same,glycan array binding signal (z-score),[11],-0.541
same,glycan array binding signal (z-score),[12],-0.553
same,glycan array binding signal (z-score),[13],-0.539
same,glycan array binding signal (z-score),GlcNAc(b1-3)Fuc,-0.528
same,glycan array binding signal (z-score),GlcNAc(b1-3)Gal,-0.528
same,glycan array binding signal (z-score),[14],0.079
same,glycan array binding signal (z-score),GlcNAc(b1-3)Gal(b1-4)Glc,-0.16
same,glycan array binding signal (z-score),[15],-0.163
same,glycan array binding signal (z-score),[16],0.55
same,glycan array binding signal (z-score),[17],0.421
same,glycan array binding signal (z-score),[18],0.363
same,glycan array binding signal (z-score),[19],1.11
same,glycan array binding signal (z-score),[20],1.55
same,glycan array binding signal (z-score),[21],2.01
same,glycan array binding signal (z-score),[22],1.56
same,glycan array binding signal (z-score),[23],1.65
same,glycan array binding signal (z-score),[24],2.08
same,glycan array binding signal (z-score),[25],2.06
same,glycan array binding signal (z-score),[26],2.74
same,glycan array binding signal (z-score),[27],3.01
same,glycan array binding signal (z-score),[28],2.3
same,glycan array binding signal (z-score),[29],0.651
same,glycan array binding signal (z-score),[30],-0.11
same,glycan array binding signal (z-score),[31],0.508
same,glycan array binding signal (z-score),[32],0.386
same,glycan array binding signal (z-score),[33],0.175
same,glycan array binding signal (z-score),[34],0.085
same,glycan array binding signal (z-score),GlcNAc(b1-3)GalNAc,-0.542
same,glycan array binding signal (z-score),GlcNAc(b1-3)Man,-0.534
same,glycan array binding signal (z-score),[35],-0.544
same,glycan array binding signal (z-score),[36],-0.541
same,glycan array binding signal (z-score),[37],-0.538
same,glycan array binding signal (z-score),[38],-0.549
same,glycan array binding signal (z-score),GlcNAc(b1-4)GlcNAc,-0.541
same,glycan array binding signal (z-score),[39],-0.549

# From the supplement of paper PMC8728848
